Our source for the binding signal values is publication PMC9911399, “Two distinct binding modes provide the RNA-binding protein RbFox with extraordinary sequence specificity”.

Where a chain is given by its changes, count along the chain named. This is one part of the list.

Sequences and labels used below:
B1: UAUGACA (DNA:RNA)
RNA: GGGAGACCGGAAUUCAGAUUGUCCUAUGACAUUAAAUCCCGUCGUAGCCACCA
DNA 1: CAATCTGAATTCCGGTCTCCC
DNA 2: TGGTGGCTACGACGGGATT
B2: UGAAUCG (DNA:RNA)
RNA: B1 RNA with A26G, U27A, G28A, A29U, A31G
DNA 1: CAATCTGAATTCCGGTCTCCC
DNA 2: TGGTGGCTACGACGGGATT
B3: CAGGUGC (DNA:RNA)
RNA: B1 RNA with U25C, U27G, A29U, C30G, A31C
DNA 1: CAATCTGAATTCCGGTCTCCC
DNA 2: TGGTGGCTACGACGGGATT
B4: GGGUGCG (DNA:RNA)
RNA: B1 RNA with U25G, A26G, U27G, G28U, A29G, A31G
DNA 1: CAATCTGAATTCCGGTCTCCC
DNA 2: TGGTGGCTACGACGGGATT
B5: UCCCGUU (DNA:RNA)
RNA: B1 RNA with A26C, U27C, G28C, A29G, C30U, A31U
DNA 1: CAATCTGAATTCCGGTCTCCC
DNA 2: TGGTGGCTACGACGGGATT
B6: UGACAGG (DNA:RNA)
RNA: B1 RNA with A26G, U27A, G28C, C30G, A31G
DNA 1: CAATCTGAATTCCGGTCTCCC
DNA 2: TGGTGGCTACGACGGGATT
B7: UAUUGCC (DNA:RNA)
RNA: B1 RNA with G28U, A29G, A31C
DNA 1: CAATCTGAATTCCGGTCTCCC
DNA 2: TGGTGGCTACGACGGGATT
B8: AAUCCUG (DNA:RNA)
RNA: B1 RNA with U25A, G28C, A29C, C30U, A31G
DNA 1: CAATCTGAATTCCGGTCTCCC
DNA 2: TGGTGGCTACGACGGGATT
B9: UGUUUUG (DNA:RNA)
RNA: B1 RNA with A26G, G28U, A29U, C30U, A31G
DNA 1: CAATCTGAATTCCGGTCTCCC
DNA 2: TGGTGGCTACGACGGGATT
B10: UGUGCCC (DNA:RNA)
RNA: B1 RNA with A26G, A29C, A31C
DNA 1: CAATCTGAATTCCGGTCTCCC
DNA 2: TGGTGGCTACGACGGGATT
B11: CAGAUAU (DNA:RNA)
RNA: B1 RNA with U25C, U27G, G28A, A29U, C30A, A31U
DNA 1: CAATCTGAATTCCGGTCTCCC
DNA 2: TGGTGGCTACGACGGGATT
B12: GGCCAGA (DNA:RNA)
RNA: B1 RNA with U25G, A26G, U27C, G28C, C30G
DNA 1: CAATCTGAATTCCGGTCTCCC
DNA 2: TGGTGGCTACGACGGGATT
B13: GCUGGGC (DNA:RNA)
RNA: B1 RNA with U25G, A26C, A29G, C30G, A31C
DNA 1: CAATCTGAATTCCGGTCTCCC
DNA 2: TGGTGGCTACGACGGGATT
B14: AGUCGGG (DNA:RNA)
RNA: B1 RNA with U25A, A26G, G28C, A29G, C30G, A31G
DNA 1: CAATCTGAATTCCGGTCTCCC
DNA 2: TGGTGGCTACGACGGGATT
B15: ACGAGAC (DNA:RNA)
RNA: GGGAGACCGGAAUUCAGAUUGUCCACGAGACUUAAAUCCCGUCGUAGCCACCA
DNA 1: CAATCTGAATTCCGGTCTCCC
DNA 2: TGGTGGCTACGACGGGATT
B16: GACCGAA (DNA:RNA)
RNA: B15 RNA with A25G, C26A, G27C, A28C, C31A
DNA 1: CAATCTGAATTCCGGTCTCCC
DNA 2: TGGTGGCTACGACGGGATT
B17: CAGAAUC (DNA:RNA)
RNA: B15 RNA with A25C, C26A, G29A, A30U
DNA 1: CAATCTGAATTCCGGTCTCCC
DNA 2: TGGTGGCTACGACGGGATT
B18: UCCGCAU (DNA:RNA)
RNA: B15 RNA with A25U, G27C, A28G, G29C, C31U
DNA 1: CAATCTGAATTCCGGTCTCCC
DNA 2: TGGTGGCTACGACGGGATT
B19: CGGUGUG (DNA:RNA)
RNA: B15 RNA with A25C, C26G, A28U, A30U, C31G
DNA 1: CAATCTGAATTCCGGTCTCCC
DNA 2: TGGTGGCTACGACGGGATT
B20: UGUCCGA (DNA:RNA)
RNA: B1 RNA with A26G, G28C, A29C, C30G
DNA 1: CAATCTGAATTCCGGTCTCCC
DNA 2: TGGTGGCTACGACGGGATT
B21: GCAGGCC (DNA:RNA)
RNA: B15 RNA with A25G, G27A, A28G, A30C
DNA 1: CAATCTGAATTCCGGTCTCCC
DNA 2: TGGTGGCTACGACGGGATT
B22: AGCGAAU (DNA:RNA)
RNA: B15 RNA with C26G, G27C, A28G, G29A, C31U
DNA 1: CAATCTGAATTCCGGTCTCCC
DNA 2: TGGTGGCTACGACGGGATT
B23: CUCUGGU (DNA:RNA)
RNA: B15 RNA with A25C, C26U, G27C, A28U, A30G, C31U
DNA 1: CAATCTGAATTCCGGTCTCCC
DNA 2: TGGTGGCTACGACGGGATT
B24: CUCUGCG (DNA:RNA)
RNA: B15 RNA with A25C, C26U, G27C, A28U, A30C, C31G
DNA 1: CAATCTGAATTCCGGTCTCCC
DNA 2: TGGTGGCTACGACGGGATT
B25: CAAGUCA (DNA:RNA)
RNA: B1 RNA with U25C, U27A, A29U
DNA 1: CAATCTGAATTCCGGTCTCCC
DNA 2: TGGTGGCTACGACGGGATT
B26: GCUGUGA (DNA:RNA)
RNA: B1 RNA with U25G, A26C, A29U, C30G
DNA 1: CAATCTGAATTCCGGTCTCCC
DNA 2: TGGTGGCTACGACGGGATT
B27: UCUUCUA (DNA:RNA)
RNA: B1 RNA with A26C, G28U, A29C, C30U
DNA 1: CAATCTGAATTCCGGTCTCCC
DNA 2: TGGTGGCTACGACGGGATT
B28: GUUAUGG (DNA:RNA)
RNA: B15 RNA with A25G, C26U, G27U, G29U, A30G, C31G
DNA 1: CAATCTGAATTCCGGTCTCCC
DNA 2: TGGTGGCTACGACGGGATT
B29: CUUUGAC (DNA:RNA)
RNA: B15 RNA with A25C, C26U, G27U, A28U
DNA 1: CAATCTGAATTCCGGTCTCCC
DNA 2: TGGTGGCTACGACGGGATT
B30: GCUAACC (DNA:RNA)
RNA: B15 RNA with A25G, G27U, G29A, A30C
DNA 1: CAATCTGAATTCCGGTCTCCC
DNA 2: TGGTGGCTACGACGGGATT
B31: GUAUAAC (DNA:RNA)
RNA: B15 RNA with A25G, C26U, G27A, A28U, G29A
DNA 1: CAATCTGAATTCCGGTCTCCC
DNA 2: TGGTGGCTACGACGGGATT

The assay concerns the target T1, RBFOX1 RRM RbFoxmut (Fox-RRM*) (Homo sapiens, UniProt Q9NWB1 109-208, R118D;E147R;N151S;E152T).
T1 sequence: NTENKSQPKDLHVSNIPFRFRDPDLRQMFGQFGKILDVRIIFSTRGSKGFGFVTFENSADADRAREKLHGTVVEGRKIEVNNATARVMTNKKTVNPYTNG
The assay is described as follows: EMSA; HiTS-Eq, 1 nM pool, 10 min; buffer printed only for the single-RNA assays: 10 mM Tris pH 7.5, 150 mM NaCl, 3.4 mM EDTA, 0.001% NP-40, 30 C. The following applies: tags: His6 N-terminal (pET28a); label: 5' 32P. In outline: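 Purified wild-type or mutant RbFox RRM at increasing concentrations was equilibrated with 1 nM of 5′-radiolabelled RNA carrying 7 randomized nucleotides for 10 min in 50 µL. Unbound RNA was separated by 8% native PAGE and sequenced. Relative association constants came from read-count changes of each RNA species compared with the control reaction, normalised to the cognate motif.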
With B1, the binding signal was 0.063 KA relative to UGCAUGU. For B2 the value was 0.363 KA relative to UGCAUGU; for B3, 0.114 KA relative to UGCAUGU; for B4, 0.252 KA relative to UGCAUGU. Turning to B5, the binding signal was 0.098 KA relative to UGCAUGU.

For the molecule B6, the binding signal was 0.0736 KA relative to UGCAUGU. For B7, the binding signal is 0.259 KA relative to UGCAUGU.

Consider B8, for which the binding signal was 0.0898 KA relative to UGCAUGU. To B9 belongs 0.24 KA relative to UGCAUGU. With B10, the binding signal was 0.0862 KA relative to UGCAUGU. Take B11: the binding signal is 0.0946 KA relative to UGCAUGU. B12: the binding signal was 0.0665 KA relative to UGCAUGU.

On to B13, for which the binding signal is 0.104 KA relative to UGCAUGU. Turning to B14, the binding signal was 0.0817 KA relative to UGCAUGU. As for B15, the binding signal was 0.0918 KA relative to UGCAUGU. For the molecule B16, the binding signal is 0.0991 KA relative to UGCAUGU. To B17 belongs 0.191 KA relative to UGCAUGU; to B18, 0.106 KA relative to UGCAUGU. Turning to B19, the binding signal was 0.327 KA relative to UGCAUGU. For B20 the value was 0.117 KA relative to UGCAUGU; for B21, 0.187 KA relative to UGCAUGU. As to B22, the binding signal is 0.124 KA relative to UGCAUGU.

In the case of B23, the binding signal was 0.088 KA relative to UGCAUGU. In the case of B24, the binding signal was 0.121 KA relative to UGCAUGU.

In the case of B25, the binding signal was 0.0876 KA relative to UGCAUGU.

Regarding B26, the binding signal was 0.117 KA relative to UGCAUGU. In the case of B27, the binding signal was 0.0886 KA relative to UGCAUGU. On to B28, for which the binding signal was 0.123 KA relative to UGCAUGU.

In the case of B29, the binding signal is 0.1 KA relative to UGCAUGU. B30: the binding signal is 0.0517 KA relative to UGCAUGU. As for B31, the binding signal was 0.125 KA relative to UGCAUGU.
